# Changes are numbered by the printed parent chain; changes in the protein carry UniProt numbers. The list shows a part of the results.
# T1: RBFOX1 RRM (Homo sapiens, UniProt Q9NWB1 109-208)
# T1 sequence: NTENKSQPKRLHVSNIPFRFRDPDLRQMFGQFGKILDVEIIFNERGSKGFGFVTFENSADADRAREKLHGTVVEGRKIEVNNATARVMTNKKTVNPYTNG
# B1: CGGGAAC (DNA:RNA)
# RNA: GGGAGACCGGAAUUCAGAUUGUCCCGGGAACUUAAAUCCCGUCGUAGCCACCA
# DNA 1: CAATCTGAATTCCGGTCTCCC
# DNA 2: TGGTGGCTACGACGGGATT
# B2: GAGAGGG (DNA:RNA)
# RNA: B1 RNA with C25G, G26A, G28A, A29G, A30G, C31G
# DNA 1: CAATCTGAATTCCGGTCTCCC
# DNA 2: TGGTGGCTACGACGGGATT
# B3: UACGCUC (DNA:RNA)
# RNA: B1 RNA with C25U, G26A, G27C, A29C, A30U
# DNA 1: CAATCTGAATTCCGGTCTCCC
# DNA 2: TGGTGGCTACGACGGGATT
# B4: ACAUUCC (DNA:RNA)
# RNA: B1 RNA with C25A, G26C, G27A, G28U, A29U, A30C
# DNA 1: CAATCTGAATTCCGGTCTCCC
# DNA 2: TGGTGGCTACGACGGGATT
# B5: ACUGCUA (DNA:RNA)
# RNA: B1 RNA with C25A, G26C, G27U, A29C, A30U, C31A
# DNA 1: CAATCTGAATTCCGGTCTCCC
# DNA 2: TGGTGGCTACGACGGGATT
# B6: CUUAGUA (DNA:RNA)
# RNA: B1 RNA with G26U, G27U, G28A, A29G, A30U, C31A
# DNA 1: CAATCTGAATTCCGGTCTCCC
# DNA 2: TGGTGGCTACGACGGGATT
# B7: GACGCCG (DNA:RNA)
# RNA: B1 RNA with C25G, G26A, G27C, A29C, A30C, C31G
# DNA 1: CAATCTGAATTCCGGTCTCCC
# DNA 2: TGGTGGCTACGACGGGATT
# B8: AUCUUAG (DNA:RNA)
# RNA: B1 RNA with C25A, G26U, G27C, G28U, A29U, C31G
# DNA 1: CAATCTGAATTCCGGTCTCCC
# DNA 2: TGGTGGCTACGACGGGATT
# B9: CAUCCGU (DNA:RNA)
# RNA: B1 RNA with G26A, G27U, G28C, A29C, A30G, C31U
# DNA 1: CAATCTGAATTCCGGTCTCCC
# DNA 2: TGGTGGCTACGACGGGATT
# B10: AGUGUCU (DNA:RNA)
# RNA: B1 RNA with C25A, G27U, A29U, A30C, C31U
# DNA 1: CAATCTGAATTCCGGTCTCCC
# DNA 2: TGGTGGCTACGACGGGATT
# B11: AUUCGCU (DNA:RNA)
# RNA: GGGAGACCGGAAUUCAGAUUGUCCAUUCGCUUUAAAUCCCGUCGUAGCCACCA
# DNA 1: CAATCTGAATTCCGGTCTCCC
# DNA 2: TGGTGGCTACGACGGGATT
# B12: CUCAACG (DNA:RNA)
# RNA: B11 RNA with A25C, U27C, C28A, G29A, U31G
# DNA 1: CAATCTGAATTCCGGTCTCCC
# DNA 2: TGGTGGCTACGACGGGATT
# B13: CUUCGGG (DNA:RNA)
# RNA: B11 RNA with A25C, C30G, U31G
# DNA 1: CAATCTGAATTCCGGTCTCCC
# DNA 2: TGGTGGCTACGACGGGATT
# B14: GUUAGCA (DNA:RNA)
# RNA: B11 RNA with A25G, C28A, U31A
# DNA 1: CAATCTGAATTCCGGTCTCCC
# DNA 2: TGGTGGCTACGACGGGATT
# B15: GAAGUGA (DNA:RNA)
# RNA: B1 RNA with C25G, G26A, G27A, A29U, A30G, C31A
# DNA 1: CAATCTGAATTCCGGTCTCCC
# DNA 2: TGGTGGCTACGACGGGATT
# B16: CUCUUUG (DNA:RNA)
# RNA: B11 RNA with A25C, U27C, C28U, G29U, C30U, U31G
# DNA 1: CAATCTGAATTCCGGTCTCCC
# DNA 2: TGGTGGCTACGACGGGATT
# B17: GGCGGAU (DNA:RNA)
# RNA: B1 RNA with C25G, G27C, A29G, C31U
# DNA 1: CAATCTGAATTCCGGTCTCCC
# DNA 2: TGGTGGCTACGACGGGATT
# B18: GUCCCCG (DNA:RNA)
# RNA: B11 RNA with A25G, U27C, G29C, U31G
# DNA 1: CAATCTGAATTCCGGTCTCCC
# DNA 2: TGGTGGCTACGACGGGATT
# B19: CUUAGGA (DNA:RNA)
# RNA: B11 RNA with A25C, C28A, C30G, U31A
# DNA 1: CAATCTGAATTCCGGTCTCCC
# DNA 2: TGGTGGCTACGACGGGATT
# B20: GUCCCAU (DNA:RNA)
# RNA: B11 RNA with A25G, U27C, G29C, C30A
# DNA 1: CAATCTGAATTCCGGTCTCCC
# DNA 2: TGGTGGCTACGACGGGATT
# B21: CUUAAAA (DNA:RNA)
# RNA: B1 RNA with G26U, G27U, G28A, C31A
# DNA 1: CAATCTGAATTCCGGTCTCCC
# DNA 2: TGGTGGCTACGACGGGATT
# B22: CUAGUAU (DNA:RNA)
# RNA: B1 RNA with G26U, G27A, A29U, C31U
# DNA 1: CAATCTGAATTCCGGTCTCCC
# DNA 2: TGGTGGCTACGACGGGATT
# B23: CAGUUGG (DNA:RNA)
# RNA: B1 RNA with G26A, G28U, A29U, A30G, C31G
# DNA 1: CAATCTGAATTCCGGTCTCCC
# DNA 2: TGGTGGCTACGACGGGATT
# B24: ACUUUCA (DNA:RNA)
# RNA: B11 RNA with U26C, C28U, G29U, U31A
# DNA 1: CAATCTGAATTCCGGTCTCCC
# DNA 2: TGGTGGCTACGACGGGATT
# B25: AGUAAUA (DNA:RNA)
# RNA: B11 RNA with U26G, C28A, G29A, C30U, U31A
# DNA 1: CAATCTGAATTCCGGTCTCCC
# DNA 2: TGGTGGCTACGACGGGATT
# B26: UGCCAGA (DNA:RNA)
# RNA: B1 RNA with C25U, G27C, G28C, A30G, C31A
# DNA 1: CAATCTGAATTCCGGTCTCCC
# DNA 2: TGGTGGCTACGACGGGATT
# B27: AGCAACU (DNA:RNA)
# RNA: B11 RNA with U26G, U27C, C28A, G29A
# DNA 1: CAATCTGAATTCCGGTCTCCC
# DNA 2: TGGTGGCTACGACGGGATT
# B28: ACACAUC (DNA:RNA)
# RNA: B11 RNA with U26C, U27A, G29A, C30U, U31C
# DNA 1: CAATCTGAATTCCGGTCTCCC
# DNA 2: TGGTGGCTACGACGGGATT
# B29: GUUCAUC (DNA:RNA)
# RNA: B11 RNA with A25G, G29A, C30U, U31C
# DNA 1: CAATCTGAATTCCGGTCTCCC
# DNA 2: TGGTGGCTACGACGGGATT
# B30: GAACCAU (DNA:RNA)
# RNA: B11 RNA with A25G, U26A, U27A, G29C, C30A
# DNA 1: CAATCTGAATTCCGGTCTCCC
# DNA 2: TGGTGGCTACGACGGGATT
# B31: GCACGUC (DNA:RNA)
# RNA: B11 RNA with A25G, U26C, U27A, C30U, U31C
# DNA 1: CAATCTGAATTCCGGTCTCCC
# DNA 2: TGGTGGCTACGACGGGATT
# Biological target: T1, RBFOX1 RRM
# Test: EMSA; HiTS-Eq, 1 nM pool, 10 min; buffer printed only for the single-RNA assays: 10 mM Tris pH 7.5, 150 mM NaCl, 3.4 mM EDTA, 0.001% NP-40, 30 C
# Settings: tags: His6 N-terminal (pET28a); label: 5' 32P
# In short: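 Purified RbFox RRM (wild type or mutant) was equilibrated for 10 min in 50 µL with 1 nM of a 5′-radiolabelled pool of RNA with 7 randomized nucleotides, its flanks annealed to DNA oligonucleotides, across increasing protein concentrations. Free RNA was separated by 8% native PAGE, excised, reverse-transcribed, PCR-barcoded and sequenced on an Illumina HiSeq 2500. Relative association constants came from read-count changes of each variant against the control reaction, normalised to the cognate motif.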
row,Binder,binding signal
1,B1,0.0268 KA relative to UGCAUGU
2,B2,0.00714 KA relative to UGCAUGU
3,B3,0.00924 KA relative to UGCAUGU
4,B4,0.000104 KA relative to UGCAUGU
5,B5,0.00579 KA relative to UGCAUGU
6,B6,0.00453 KA relative to UGCAUGU
7,B7,0.0154 KA relative to UGCAUGU
8,B8,0.00706 KA relative to UGCAUGU
9,B9,0.000684 KA relative to UGCAUGU
10,B10,0.0109 KA relative to UGCAUGU
11,B11,0.00789 KA relative to UGCAUGU
12,B12,0.00406 KA relative to UGCAUGU
13,B13,0.00512 KA relative to UGCAUGU
14,B14,0.0176 KA relative to UGCAUGU
15,B15,0.0136 KA relative to UGCAUGU
16,B16,0.0134 KA relative to UGCAUGU

row,Binder,binding signal
1,B17,0.0181 KA relative to UGCAUGU
2,B18,0.00848 KA relative to UGCAUGU
3,B19,0.00453 KA relative to UGCAUGU
4,B20,0.00286 KA relative to UGCAUGU
5,B21,0.00143 KA relative to UGCAUGU
6,B22,0.00471 KA relative to UGCAUGU
7,B23,0.0125 KA relative to UGCAUGU
8,B24,0.00407 KA relative to UGCAUGU
9,B25,0.0038 KA relative to UGCAUGU
10,B26,0.0215 KA relative to UGCAUGU
11,B27,0.00504 KA relative to UGCAUGU
12,B28,9.49e-05 KA relative to UGCAUGU
13,B29,0.00875 KA relative to UGCAUGU
14,B30,0.00272 KA relative to UGCAUGU
15,B31,0.0416 KA relative to UGCAUGU
